{"source": "the RNAGym collection of RNA variant scans (doi:10.1073/pnas.2313332121)", "parents": {"B1": {"name": "TPR 5TU (parent)", "chain": "GGAUCUUCUCGAUCUAACAAAAAAGACAAAUCUGCCACAAAGCUUGAGAGCAUCUUCGGAUGCAGAGGCGGCAGCCUUCGGUGGCGCGAUAGCGCCAACGUUCUCAACUAUGACACGCAAAACGCGUGCUCCGUUGAAUGGAGUUUAUCAUG"}}, "note": "Variants at the floor of the assay are shown more often than the library holds them."}
{"variants_of": "B1", "experiment": "polymerase ribozyme fitness, log enrichment relative to wild type (log ratio); higher = more active; in vitro selection for triplet polymerase activity", "summary_of_the_method": "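Fitness measures genotype enrichment against wild-type enrichment on a logarithmic scale, with inverse-variance-weighted averaging of replicates. The logarithm is base 2, and genotypes were kept only with ≥10 input reads and ≥1 read per output in Illumina sequencing. The sequenced libraries came from one triplicate in vitro selection round, including frozen incubation at −7 °C, of PCR-built, transcribed mutant libraries of each subunit of a heterodimeric triplet polymerase ribozyme.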"}
{"variant": "GGAUCUUCUCGAUCUAACAAAAAAGACAAAUCUGCCACAAAGCUUGAGAGCAUCUUCGGAUGCAGAGGCGGCAGCCUUCGGUGGCGUCAUAGCGCCAACGUUCUCAACUAUGACACGCAAAACGGGUGCUCCGUUGAAUAGAUUUUAUCAUG", "note": "[C87U G88C C125G G140A G143U]", "polymerase ribozyme fitness (log ratio)": "≤ -4.2"}
{"variant": "GGAUCUUCUCGAUCUAACAAAAAAGACAAAUCUGCCACAAAGCUUGAGAGCAUCUUCGGAUGCAGAGGCGGCAGCCUUCGGUGGCGUGAUAGCGCCAACGUUCUCAUCUAUGACACGCAAAACGCGUGCUCCGUUGAAUGGAGUUUAUCAUG", "note": "[C87U A107U]", "polymerase ribozyme fitness (log ratio)": -3.34}
{"variant": "GGAUCUUCUCGAUCUAACAAAAAAGACAAAUCUGCCACAAAGCUUGAGAGCAUCUUCGGAUGCAGAGGCGGCAGCCUUCGGUGGCGUGAUAGCGCCAACGUUGUCAACUAUGACACGCAAAACGCGUGCUCCGUUGAAUGGAGUUUAUCAUG", "note": "[C87U C103G]", "polymerase ribozyme fitness (log ratio)": -2.13}
{"variant": "GGAUCUUCUCGAUCUAACAAAAAAGACAAAUCUGCCACAAAGCUUGAGAGCAUCUUCGGAUGCAGAGGCGGCAGCCUUCGGUGGCGGGUUAGCGCCAACGUUCUCAACUAUGACACGCAAAACGCGAGCUCCGUUGAAUGGCGUUUAUCAUG", "note": "[C87G A89U U127A A142C]", "polymerase ribozyme fitness (log ratio)": "≤ -4.2"}
{"variant": "GGAUCUUCUCGAUCUAACAAAAAAGACAAAUCUGCCACAAAGCUUGAGAGCAUCUUCGGAUGCAGAGGCGGCAGCCUUCGGUGGCGUGAUAGCGCCAACGUUCUCAACUAUGACACGCAAAACGCGUGCUCCGUUGGAUGGAGUUUAUCAUG", "note": "[C87U A137G]", "polymerase ribozyme fitness (log ratio)": -1.81}
{"variant": "GGAUCUUCUCGAUCUAACAAAAAAGACAAAUCUGCCACAAAGCUUGAGAGCAUCUUCGGAUGCAGAGGCGGCAGCCUUCGGUGGCGUGAUAGCGCCAACGUUCUCAACUAUGACACGCAAAACGCGUGCUCCGUUGAAUGGAGUUUAACAUG", "note": "[C87U U148A]", "polymerase ribozyme fitness (log ratio)": -3.62}
{"variant": "GGAUCUUCUCGAUCUAACAAAAAAGACAAAUCUGCCACAAAGCUUGAGAGCAUCUUCGGAUGCAGAGGCGGCAGCCUUCGGUGGCGCAAUAGGGCCAACGUUCUCAACUAUGACACGCAAAACGCGUGCUCCGUUGAAUGGAGUUUAUGAUG", "note": "[G88A C93G C149G]", "polymerase ribozyme fitness (log ratio)": "≤ -4.2"}
{"variant": "GGAUCUUCUCGAUCUAACAAAAAAGACAAAUCUGCCACAAAGCUUGAGAGCAUCUUCGGAUGCAGAGGCGGCAGCCUUCGGUGGCGUGAGAGCGCCAACGUUCUCAACUAUGACACGCAAAACGCGUGCUCCGUAGAAUGGAGUUUAUCAUG", "note": "[C87U U90G U135A]", "polymerase ribozyme fitness (log ratio)": "≤ -4.2"}
{"variant": "GGAUCUUCUCGAUCUAACAAAAAAGACAAAUCUGCCACAAAGCUUGAGAGCAUCUUCGGAUGCAGAGGCGGCAGCCUUCGGUGGCGUGAUAGCGCCAACGUUCUCAACUAGGACACGCAAAACGCGUGCUCCGUUGAAUGGAGUUUAUCAUG", "note": "[C87U U111G]", "polymerase ribozyme fitness (log ratio)": "≤ -4.2"}
{"variant": "GGAUCUUCUCGAUCUAACAAAAAAGACAAAUCUGCCACAAAGCUUGAGAGCAUCUUCGGAUGCAGAGGCGGCAGCCUUCGGUGGCGGGAUAGCGCCAACGUUCUCAACUAUGACACGCAAAACGCGUGCUCCGUUGAAUCGAGUUUAUCAUG", "note": "[C87G G140C]", "polymerase ribozyme fitness (log ratio)": "≤ -4.2"}
{"variant": "GGAUCUUCUCGAUCUAACAAAAAAGACAAAUCUGCCACAAAGCUUGAGAGCAUCUUCGGAUGCAGAGGCGGCAGCCUUCGGUGGCGAGAUAGCGCCAACGUUCUCAACUAUGACACGCAAAACGCGUGCUCCGUUGAAUGGAGUUUAUCAGG", "note": "[C87A U151G]", "polymerase ribozyme fitness (log ratio)": "≤ -4.2"}
{"variant": "GGAUCUUCUCGAUCUAACAAAAAAGACAAAUCUGCCACAAAGCUUGAGAGCAUCUUCGGAUGCAGAGGCGGCAGCCUUCGGUGGCGGGAUAGCGCCAACGUUCUCAACUAUGACACGCAAAACGCGUGCUCCGUUGAAAGGAGUUUAUCAUG", "note": "[C87G U139A]", "polymerase ribozyme fitness (log ratio)": "≤ -4.2"}
{"variant": "GGAUCUUCUCGAUCUAACAAAAAAGACAAAUCUGCCACAAAGCUUGAGAGCAUCUUCGGAUGCAGAGGCGGCAGCCUUCGGUGGCGUGAUUGCGCCAGCGUUCUCAACUAUGACACGCAAAACGCGUGCUCCGUUGAGUGGAGUUUAUCAUA", "note": "[C87U A91U A98G A138G G152A]", "polymerase ribozyme fitness (log ratio)": "≤ -4.2"}
{"variant": "GGAUCUUCUCGAUCUAACAAAAAAGACAAAUCUGCCACAAAGCUUGAGAGCAUCUUCGGAUGCAGAGGCGGCAGCCUUCGGUGGCGCAAUAGCGGCAACGUUCUCAACUAUGACACGCAAAACGCGUGCUCCGUUGAAUGGAGUUUAGCCUG", "note": "[G88A C95G U148G A150C]", "polymerase ribozyme fitness (log ratio)": "≤ -4.2"}
{"variant": "GGAUCUUCUCGAUCUAACAAAAAAGACAAAUCUGCCACAAAGCUUGAGAGCAUCUUCGGAUGCAGAGGCGGCAGCCUUCGGUGGCGGGAUAGCGCCAACGUUCUCAACUAUGACACGCAAAACGCGCGCUCCGUUGAAUGGAGUUUAUCAUG", "note": "[C87G U127C]", "polymerase ribozyme fitness (log ratio)": "≤ -4.2"}
{"variant": "GGAUCUUCUCGAUCUAACAAAAAAGACAAAUCUGCCACAAAGCUUGAGAGCAUCUUCGGAUGCAGAGGCGGCAGCCUUCGGUGGCGUGAUAGCGCCAACGUUCUCAACUAUGACUCGCAAAACGCGUGCUCCGUUGAAUGGAGUUUAUCAUG", "note": "[C87U A115U]", "polymerase ribozyme fitness (log ratio)": -1.73}
{"variant": "GGAUCUUCUCGAUCUAACAAAAAAGACAAAUCUGCCACAAAGCUUGAGAGCAUCUUCGGAUGCAGAGGCGGCAGCCUUCGGUGGCGCAAUAGUGCCAACGUUCUCAACUAUGACACGCAAAACGCGUGCUCCGUUGAAUGGAGUUUAUCAUG", "note": "[G88A C93U]", "polymerase ribozyme fitness (log ratio)": "≤ -4.2"}
{"variant": "GGAUCUUCUCGAUCUAACAAAAAAGACAAAUCUGCCACAAAGCUUGAGAGCAUCUUCGGAUGCAGAGGCGGCAGCCUUCGGUGGCGUGAUAGCGCCAACGUUCUCAGCUAUGACACGCUAAACGCGUGCUCCGUUGAAUGGAGUUUAUCAUG", "note": "[C87U A107G A119U]", "polymerase ribozyme fitness (log ratio)": "≤ -4.2"}
{"variant": "GGAUCUUCUCGAUCUAACAAAAAAGACAAAUCUGCCACAAAGCUUGAGAGCAUCUUCGGAUGCAGAGGCGGCAGCCUUCGGUGGCGGGAUAGCGCCAACGUUCUCAACUAUGACACGCAAAACGCGUGCUCCGUUGAAUGGAGUUUAUCAUU", "note": "[C87G G152U]", "polymerase ribozyme fitness (log ratio)": -3.57}
